# Measured values published in the supplement of paper PMC8728848.
# Some of the results follow.
# Key:
# Assay in all cases: glycan array binding signal (z-score within array); higher = stronger binding
# Settings in all cases: glycan notation: IUPAC condensed, linker removed
# [1] = biological target: Neu5Ac(a2-3)Gal(b1-4)GlcNAc(b1-2)[Neu5Ac(a2-3)Gal(b1-4)GlcNAc(b1-4)]Man(a1-3)[GlcNAc(b1-4)][Neu5Ac(a2-3)Gal(b1-4)GlcNAc(b1-4)Man(a1-6)]Man(b1-4)GlcNAc(b1-4)GlcNAc
# Summary of the method: (§1)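 From the Consortium for Functional Glycomics database, 3228 arrays were curated, keeping only those whose protein sequence was available. Binding is given as a within-array Z-score averaged across arrays sharing a protein sequence and across linkers. Negative Z-scores can be read as non-binding.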
# [2] = biological target: Neu5Ac(a2-3)Gal(b1-4)GlcNAc(b1-2)[Neu5Ac(a2-3)Gal(b1-4)GlcNAc(b1-6)]Man(a1-6)[Neu5Ac(a2-3)Gal(b1-4)GlcNAc(b1-2)Man(a1-3)]Man(b1-4)GlcNAc(b1-4)GlcNAc
# Summary of the method: as §1
# [3] = biological target: Neu5Ac(a2-3)Gal(b1-4)GlcNAc(b1-2)[Neu5Ac(a2-3)Gal(b1-4)GlcNAc(b1-6)]Man(a1-6)[Neu5Ac(a2-3)Gal(b1-4)GlcNAc(b1-2)Man(a1-3)][GlcNAc(b1-4)]Man(b1-4)GlcNAc(b1-4)GlcNAc
# Summary of the method: as §1
# [4] = biological target: Neu5Ac(a2-3)Gal(b1-4)GlcNAc(b1-3)Gal
# Summary of the method: as §1
# [5] = biological target: Neu5Ac(a2-3)Gal(b1-4)GlcNAc(b1-3)Gal(b1-3)GlcNAc
# Summary of the method: as §1
# [6] = biological target: Neu5Ac(a2-3)Gal(b1-4)GlcNAc(b1-3)Gal(b1-4)GlcNAc
# Summary of the method: as §1
# [7] = biological target: Neu5Ac(a2-3)Gal(b1-4)GlcNAc(b1-3)Gal(b1-4)GlcNAc(b1-2)Man(a1-3)[Neu5Ac(a2-3)Gal(b1-4)GlcNAc(b1-3)Gal(b1-4)GlcNAc(b1-2)Man(a1-6)]Man(b1-4)GlcNAc(b1-4)GlcNAc
# Summary of the method: as §1
# [8] = biological target: Neu5Ac(a2-3)Gal(b1-4)GlcNAc(b1-3)Gal(b1-4)GlcNAc(b1-3)Gal(b1-4)GlcNAc
# Summary of the method: as §1
# [9] = biological target: Neu5Ac(a2-3)Gal(b1-4)GlcNAc(b1-3)Gal(b1-4)GlcNAc(b1-3)Gal(b1-4)GlcNAc(b1-2)Man(a1-3)[Neu5Ac(a2-3)Gal(b1-4)GlcNAc(b1-3)Gal(b1-4)GlcNAc(b1-3)Gal(b1-4)GlcNAc(b1-2)Man(a1-6)]GalNAc
# Summary of the method: as §1
# [10] = biological target: Neu5Ac(a2-3)Gal(b1-4)GlcNAc(b1-3)Gal(b1-4)GlcNAc(b1-3)GalNAc
# Summary of the method: as §1
# [11] = biological target: Neu5Ac(a2-3)Gal(b1-4)GlcNAc(b1-3)Gal(b1-4)GlcNAc(b1-3)[Neu5Ac(a2-3)Gal(b1-4)GlcNAc(b1-3)Gal(b1-4)GlcNAc(b1-6)]GalNAc
# Summary of the method: as §1
# [12] = biological target: Neu5Ac(a2-3)Gal(b1-4)GlcNAc(b1-3)Gal(b1-4)GlcNAc(b1-6)[Gal(b1-3)]GalNAc
# Summary of the method: as §1
# [13] = biological target: Neu5Ac(a2-3)Gal(b1-4)GlcNAc(b1-3)Gal(b1-4)[Fuc(a1-3)]GlcNAc
# Summary of the method: as §1
# [14] = biological target: Neu5Ac(a2-3)Gal(b1-4)GlcNAc(b1-3)GalNAc
# Summary of the method: as §1
# [15] = biological target: Neu5Ac(a2-3)Gal(b1-4)GlcNAc(b1-3)[Neu5Ac(a2-3)Gal(b1-4)GlcNAc(b1-6)]GalNAc
# Summary of the method: as §1
# [16] = biological target: Neu5Ac(a2-3)Gal(b1-4)GlcNAc(b1-6)GalNAc
# Summary of the method: as §1
# [17] = biological target: Neu5Ac(a2-3)Gal(b1-4)GlcNAc(b1-6)[Gal(b1-3)]GalNAc
# Summary of the method: as §1
# [18] = biological target: Neu5Ac(a2-3)Gal(b1-4)GlcNAc(b1-6)[Neu5Ac(a2-3)Gal(b1-3)]GalNAc
# Summary of the method: as §1
# [19] = biological target: Neu5Ac(a2-3)Gal(b1-4)GlcNAc6S
# Summary of the method: as §1
# [20] = biological target: Neu5Ac(a2-3)Gal(b1-4)[Fuc(a1-3)]GlcNAc
# Summary of the method: as §1
# [21] = biological target: Neu5Ac(a2-3)Gal(b1-4)[Fuc(a1-3)]GlcNAc(b1-2)Man
# Summary of the method: as §1
# [22] = biological target: Neu5Ac(a2-3)Gal(b1-4)[Fuc(a1-3)]GlcNAc(b1-3)Gal
# Summary of the method: as §1
# [23] = biological target: Neu5Ac(a2-3)Gal(b1-4)[Fuc(a1-3)]GlcNAc(b1-3)Gal(b1-4)GlcNAc
# Summary of the method: as §1
# [24] = biological target: Neu5Ac(a2-3)Gal(b1-4)[Fuc(a1-3)]GlcNAc(b1-3)Gal(b1-4)[Fuc(a1-3)]GlcNAc(b1-3)Gal(b1-4)[Fuc(a1-3)]GlcNAc
# Summary of the method: as §1
# [25] = biological target: Neu5Ac(a2-3)Gal(b1-4)[Fuc(a1-3)]GlcNAc(b1-3)GalNAc
# Summary of the method: as §1
# [26] = biological target: Neu5Ac(a2-3)Gal(b1-4)[Fuc(a1-3)]GlcNAc(b1-6)[Gal(b1-3)]GalNAc
# Summary of the method: as §1
# [27] = biological target: Neu5Ac(a2-3)Gal(b1-4)[Fuc(a1-3)]GlcNAc(b1-6)[Neu5Ac(a2-3)Gal(b1-3)]GalNAc
# Summary of the method: as §1
# [28] = biological target: Neu5Ac(a2-3)Gal(b1-4)[Fuc(a1-3)]GlcNAc6S
# Summary of the method: as §1
# [29] = biological target: Neu5Ac(a2-3)Gal6S(b1-4)GlcNAc
# Summary of the method: as §1
# [30] = biological target: Neu5Ac(a2-3)Gal6S(b1-4)[Fuc(a1-3)]GlcNAc
# Summary of the method: as §1
# Neu5Ac(a2-3)GalNAc = biological target: Neu5Ac(a2-3)GalNAc
# Summary of the method: as §1
# [31] = biological target: Neu5Ac(a2-3)GalNAc(b1-4)GlcNAc
# Summary of the method: as §1
# [32] = biological target: Neu5Ac(a2-3)[GalNAc(b1-4)]Gal(b1-4)Glc
# Summary of the method: as §1
# [33] = biological target: Neu5Ac(a2-3)[GalNAc(b1-4)]Gal(b1-4)GlcNAc
# Summary of the method: as §1
# [34] = biological target: Neu5Ac(a2-3)[GalNAc(b1-4)]Gal(b1-4)GlcNAc(b1-3)GalNAc
# Summary of the method: as §1
# [35] = biological target: Neu5Ac(a2-3)[Neu5Ac(a2-6)]GalNAc
# Summary of the method: as §1
# Neu5Ac(a2-6)Gal = biological target: Neu5Ac(a2-6)Gal
# Summary of the method: as §1
# [36] = biological target: Neu5Ac(a2-6)Gal(b1-3)GlcNAc(b1-3)[Gal(b1-4)GlcNAc(b1-6)]Gal(b1-4)Glc
# Summary of the method: as §1
# Neu5Ac(a2-6)Gal(b1-4)Glc = biological target: Neu5Ac(a2-6)Gal(b1-4)Glc
# Summary of the method: as §1
# [37] = biological target: Neu5Ac(a2-6)Gal(b1-4)GlcNAc
# Summary of the method: as §1
# [38] = biological target: Neu5Ac(a2-6)Gal(b1-4)GlcNAc(b1-2)Man
# Summary of the method: as §1
# [39] = biological target: Neu5Ac(a2-6)Gal(b1-4)GlcNAc(b1-2)Man(a1-3)Man(b1-4)GlcNAc(b1-4)GlcNAc
# Summary of the method: as §1
# [40] = biological target: Neu5Ac(a2-6)Gal(b1-4)GlcNAc(b1-2)Man(a1-3)[Gal(b1-4)GlcNAc(b1-2)Man(a1-6)]Man(b1-4)GlcNAc(b1-4)GlcNAc
# Summary of the method: as §1
# [41] = biological target: Neu5Ac(a2-6)Gal(b1-4)GlcNAc(b1-2)Man(a1-3)[GlcNAc(b1-2)Man(a1-6)]Man(b1-4)GlcNAc(b1-4)GlcNAc
# Summary of the method: as §1
# [42] = biological target: Neu5Ac(a2-6)Gal(b1-4)GlcNAc(b1-2)Man(a1-3)[GlcNAc(b1-4)][Neu5Ac(a2-6)Gal(b1-4)GlcNAc(b1-2)Man(a1-6)]Man(b1-4)GlcNAc(b1-4)GlcNAc
# Summary of the method: as §1
binder,measurement,setting,value
PX14379A-bvu-539-28-539 (Bacteroides vulgatus) (protein) EPYSEIIEEDYVPTEADEIALLATTYSQLRFVMDWYGLFDLQEESGDVIVTPTRPNGWDDGGTYKQMHKHTWDNQQGQPQSIWDYCYKGIANANKILKRADEGFFTEESKPKVVAEVKGVRALWYSILCDTHGNIPIQTSFSEEVPVQSTRKQVFDFIINELKEVMPNLPTEVNKSTYGRLTQWGAKCLMARMYLNAGVYTGTPMWNECLEQCNDIINSGLFSLETNYTDIFKTENSGCVETIFAIPYDEVYNEGDNNGPVFGAHMKFLSSNSRKVFNMQTTPWGGSAANPQFINSYDPDDMRLKYTWLQGDQYSPDGVLITTFPNKLPSIYKTDTDDGYRVGKYEIKVGAKSLLSNDFPYFRYTEVLLMKAECLLRLGQNETEAAHIVSQIRERAFRESAHPEKATVDAAWLKGDTHINYGTLDEKGQIDDAGNTEVVELGGLYDEWGWEFAAEARRRTDMIRFGTYQKKSWFNHTPTANDLNGNSILFPIHLDHLNTNPNLQQNPGYAGK,glycan array binding signal (z-score),[1],-0.249
same,glycan array binding signal (z-score),[2],0.084
same,glycan array binding signal (z-score),[3],-0.378
same,glycan array binding signal (z-score),[4],-0.232
same,glycan array binding signal (z-score),[5],-0.338
same,glycan array binding signal (z-score),[6],-0.185
same,glycan array binding signal (z-score),[7],0.342
same,glycan array binding signal (z-score),[8],-0.409
same,glycan array binding signal (z-score),[9],0.579
same,glycan array binding signal (z-score),[10],-0.138
same,glycan array binding signal (z-score),[11],-0.132
same,glycan array binding signal (z-score),[12],0.714
same,glycan array binding signal (z-score),[13],-0.423
same,glycan array binding signal (z-score),[14],-0.261
same,glycan array binding signal (z-score),[15],-0.185
same,glycan array binding signal (z-score),[16],-0.273
same,glycan array binding signal (z-score),[17],-0.388
same,glycan array binding signal (z-score),[18],-0.36
same,glycan array binding signal (z-score),[19],-0.045
same,glycan array binding signal (z-score),[20],-0.286
same,glycan array binding signal (z-score),[21],-0.132
same,glycan array binding signal (z-score),[22],-0.569
same,glycan array binding signal (z-score),[23],0.004
same,glycan array binding signal (z-score),[24],-0.35
same,glycan array binding signal (z-score),[25],5.8
same,glycan array binding signal (z-score),[26],-0.11
same,glycan array binding signal (z-score),[27],-0.096
same,glycan array binding signal (z-score),[28],-0.064
same,glycan array binding signal (z-score),[29],-0.25
same,glycan array binding signal (z-score),[30],-0.493
same,glycan array binding signal (z-score),Neu5Ac(a2-3)GalNAc,-0.249
same,glycan array binding signal (z-score),[31],0.016
same,glycan array binding signal (z-score),[32],-0.297
same,glycan array binding signal (z-score),[33],-0.191
same,glycan array binding signal (z-score),[34],0.886
same,glycan array binding signal (z-score),[35],-0.068
same,glycan array binding signal (z-score),Neu5Ac(a2-6)Gal,0.024
same,glycan array binding signal (z-score),[36],-0.294
same,glycan array binding signal (z-score),Neu5Ac(a2-6)Gal(b1-4)Glc,-0.294
same,glycan array binding signal (z-score),[37],0.011
same,glycan array binding signal (z-score),[38],-0.559
same,glycan array binding signal (z-score),[39],-0.074
same,glycan array binding signal (z-score),[40],0.14
same,glycan array binding signal (z-score),[41],-0.366
same,glycan array binding signal (z-score),[42],-0.434
